In PubChem BioAssay AID1030 (National Center for Advancing Translational Sciences (NCATS), 2008):
About 16,000 (7.3%) of roughly 220,000 compounds were called active. The inconclusive results got no clear call from the source; some entries with a clear call stand among them for comparison. Calls follow the shape of the dose curve; as a rule, active = well fitted inhibition curve with a large enough effect (not every such curve was filed as active); inconclusive = small, poorly fitted or top-dose-only effect, or another doubt; inactive = no such curve, though single readings can be large or run the other way. Potencies of inconclusive entries are left out as doubtful fits.

What follows are compounds tested against Aldehyde dehydrogenase 1A1 (Homo sapiens) (UniProt P00352) (assay: qHTS Assay for Inhibitors of Aldehyde Dehydrogenase 1 (ALDH1A1)). Details: Purified ALDH1A1, NADH fluorescence, propionaldehyde substrate; series mostly up to 75.3 µM; activity, negative = inhibition: at the top concentration.
Sequence of UniProt P00352 (P00352 whole entry, looked up): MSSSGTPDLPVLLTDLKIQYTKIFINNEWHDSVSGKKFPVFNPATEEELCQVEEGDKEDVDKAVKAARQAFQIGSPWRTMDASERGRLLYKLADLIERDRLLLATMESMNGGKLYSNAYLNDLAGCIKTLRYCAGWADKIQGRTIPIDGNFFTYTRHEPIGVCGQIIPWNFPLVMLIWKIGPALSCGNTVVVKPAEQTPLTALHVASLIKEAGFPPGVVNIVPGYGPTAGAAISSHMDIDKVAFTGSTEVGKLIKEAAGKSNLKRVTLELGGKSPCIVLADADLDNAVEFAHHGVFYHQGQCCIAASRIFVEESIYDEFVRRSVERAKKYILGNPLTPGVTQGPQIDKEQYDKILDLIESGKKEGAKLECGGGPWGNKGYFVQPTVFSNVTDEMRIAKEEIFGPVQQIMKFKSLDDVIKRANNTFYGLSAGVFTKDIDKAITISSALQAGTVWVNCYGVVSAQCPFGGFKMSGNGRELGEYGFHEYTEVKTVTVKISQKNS

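For activity, negative = inhibition in this document: plate controls were no enzyme wells and a reference inhibitor.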
Potency is read from the fitted curve at half-maximal effect; tags tell the direction and shape of the fitted curve.

SMILES | Potency | activity, negative = inhibition
Cc1nn(C)c(C(=O)N2CCN(C(=O)c3ccco3)CC2)c1[N+](=O)[O-] | inconclusive [inhibitor, single point] | –
COc1ccc(OC)c(C2CC(=O)N3CN(c4ccccc4F)CSC3=C2C#N)c1 (stereo not given) | active: 3.98 µM | –
Cc1cccc(-n2ncc3c(N4CC(C)CC(C)C4)ncnc32)c1 (stereo not given) | active: 25.1 µM | –
COc1cc(C(=O)N/N=C(\C)Cc2ccccc2)cc(OC)c1OC | active: 20 µM | –
COc1ccc(Cl)cc1C(=O)N1CCN(c2ccccn2)CC1 | inconclusive [inhibitor, single point] | –
CN(C)/C=C/C(=O)c1cccc([N+](=O)[O-])c1 | inconclusive [inhibitor, single point] | –
O=C(c1ccco1)N1CCN(CCCCN2C(=O)c3ccccc3C2=O)CC1 | inconclusive [inhibitor, partial curve] | –
O=C(NC1CCCCC1)c1ccc(NS(=O)(=O)c2cccc3cccnc23)cc1 | active: 7.94 µM | –
O=C1C(=Nc2cccc(Cl)c2)CC(c2ccc(Cl)cc2)N1c1cccc(Cl)c1 (stereo not given) | inconclusive [inhibitor, single point] | –
COCCCNCC1C(Oc2ccc(Cl)cc2)C(=O)N1c1ccccc1C (stereo not given) | inconclusive [inhibitor, single point] | –
CCOC(=O)c1sc(=NC(=O)c2ccccc2)n(C)c1C | inconclusive [inhibitor, single point] | –
Cc1ccc(S(=O)(=O)c2nc(-c3ccco3)oc2SCC(=O)NCC2CCCO2)cc1 (stereo not given) | inconclusive [inhibitor, single point] | –
N#Cc1ccc(CN2CC[C@@]3(CCCN(C(=O)c4cccc(F)c4)C3)C2)cc1 | – | inactive: -8.81%
O=c1c(O)c(-c2ccc(O)c(O)c2)oc2c(OC3OC(CO)C(O)C(O)C3O)c(O)cc(O)c12 (stereo not given) | inconclusive [inhibitor, single point] | –
O=C(c1ccccc1)c1ccc(OCC(O)CN2CCN(S(=O)(=O)N3CCCCC3)CC2)cc1 (stereo not given) | inconclusive [inhibitor, single point] | –
COc1ccc2c(=O)c(-c3cnn(-c4ccccc4)c3)c(C)oc2c1 | inconclusive [inhibitor, single point] | –
COC(=O)c1ccc(-c2cc(C(=O)O)c3cc4c(cc3n2)OCCO4)cc1 | inconclusive [inhibitor, partial curve] | –
COc1ccc(CNC(=O)CSc2nnc(C(F)(F)F)n2C)cc1 | inconclusive [inhibitor, single point] | –
Cc1ccc(S(=O)(=O)N2CCC(C(N)=O)CC2)c(C)c1C | inconclusive [inhibitor, partial curve] | –
CCCCCCC1/C(=N/O)CCC1C(=O)OC (stereo not given) | – | inactive: 2.9%
CN(C)CCCN(C(=O)CCSc1ccccc1)c1nc2cc3c(cc2s1)OCO3 | inconclusive [inhibitor, single point] | –
COc1ccc(C(C)=O)cc1CSCCC(=O)O | – | inactive: -4.87%
CCOc1ccc(N(CC(=O)NCc2ccco2)S(=O)(=O)c2ccc(OC)c(OC)c2)cc1 | inconclusive [inhibitor, single point] | –

SMILES | Potency | activity, negative = inhibition
O=C(CSc1nc(O)cc(=O)[nH]1)N1c2ccccc2Sc2ccccc21 | inconclusive [inhibitor, single point] | –
O=C(NC1CCN(C(=O)N2c3ccccc3Sc3ccccc32)CC1)c1ccccc1F | active: 11.2 µM | –
CCS(=O)(=O)c1ccc2c(c1)N(S(=O)(=O)c1ccc(OC)cc1)CC(C(=O)O)O2 (stereo not given) | inconclusive [inhibitor, single point] | –
O=C(c1csc2c1CCCC2)N1CCN(c2ccc(F)cc2)CC1 | inconclusive [inhibitor, single point] | –
CCOc1ccc(CN2CCN(Cc3[nH]c4ccccc4c3C)CC2CCO)cc1 (stereo not given) | – | inactive: -5.76%
COC(=O)c1ccc(C(NC(=O)OCc2ccccc2)/C(F)=C/[C@@H](C)C(=O)NCCc2c[nH]c3ccc(OC)cc23)cc1 (stereo not given in full) | inconclusive [inhibitor, partial curve] | –
O=C1N=C(N2CCOCC2)S/C1=C/c1cccs1 | – | inactive: -0.102%
O=C(Nc1ccc(F)cc1)N(Cc1cccs1)Cc1cc2cc3c(cc2[nH]c1=O)OCO3 | inconclusive [inhibitor, partial curve] | –
O=C(Nc1nnc(-c2cccs2)o1)c1ccco1 | – | inactive: -7.01%
COc1ccc(-c2cn3cccnc3n2)cc1F | inconclusive [inhibitor, partial curve] | –
COc1ccc(-c2cc(C(F)(F)F)c(C#N)c(SCC(=O)Nc3ccc(C)cc3)n2)cc1 | – | inactive: -0.412%
COc1cc(NC(=O)c2ccc(Cl)cc2)c(OC)cc1NC(=O)CN1CCOCC1 | inconclusive [inhibitor, single point] | –
CCC1=NC(c2ccccc2OC)N(O)C1(C)C (stereo not given) | inconclusive [inhibitor, single point] | –
COc1ccc2c(c1)-c1nc(NC(=O)c3ccco3)sc1CC2 | inconclusive [inhibitor, single point] | –
COc1cccc(Nc2cc(N3CCOCC3)c3nonc3c2[N+](=O)[O-])c1 | – | inactive: 2.67%
CC(=O)c1cc(C#N)c(SCC(=O)OC(C)(C)C)nc1C | active: 6.31 µM | –
COc1cc2c(cc1OC)CN(Cc1cc(=O)n3cc(C)ccc3n1)CC2 | inconclusive [inhibitor, partial curve] | –
CCc1nnc(NC(=O)CSc2nc(C3CCCCC3)nc3ccccc23)s1 | – | inactive: -3.96%
Cn1c(SCC(=O)NC(C)(C)C)nnc1-c1cnccn1 | – | inactive: 6.64%
COc1ccc(N)c(OC)c1 | inconclusive [inhibitor, single point] | –
COc1ccc(-c2nc(C(N)=O)c3[nH]c(=O)n(-c4ccccc4OC)c3n2)c(OC)c1 | inconclusive [inhibitor, single point] | –
CCOCCCNC(=S)N1C2CCC1CC(NC(=O)NC13CC4CC(CC(C4)C1)C3)C2 (stereo not given) | inconclusive [inhibitor, single point] | –
